# In PubChem BioAssay AID686970 (National Center for Advancing Translational Sciences (NCATS), 2013):
# In all, about 360,000 compounds went through this assay and about 6,000 (1.7%) were called active. This list was built around the results that the source calls inconclusive (neither active nor inactive); the mix of calls is not that of the screen. Calls follow the shape of the dose curve; as a rule, active = well fitted cell-killing curve with a large enough effect; inconclusive = small, poorly fitted or top-dose-only effect, or effect the other way; inactive = flat fitted curve, though single readings scatter. Potencies of inconclusive entries are left out as doubtful fits.
# Test: qHTS for induction of synthetic lethality in tumor cells producing 2HG: qHTS for the HT-1080-NT fibrosarcoma cell line;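 also: NT is the 2HG producing partner of a matched IDH1 knockdown line; nearly all actives have a fitted effect of over 55% in size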;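 as to activity, negative = less viability: 0% = DMSO-treated cells and -100% = media-only wells without cells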
# Details: HT-1080-NT fibrosarcoma viability, CellTiter-Glo ATP luminescence, 48 h; activity, negative = less viability: at 46.1 µM (top of the series) unless noted
# Outline: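 Toxicity toward the 2HG-producing NT line was scored as %Activity, normalised to DMSO and no-cell wells, from CellTiter-Glo luminescence after 48 hours' treatment.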
# Potency is read from the fitted curve at half-maximal effect; tags tell the direction and shape of the fitted curve.
SMILES,"activity, negative = less viability",Potency
CC(C(=O)Nc1ccc(Cl)cc1)c1ncc(C(F)(F)F)cc1Cl (stereo not given),inactive: -18.5%,–
COc1cc(NC(=O)CN2CCCCC2)c(C)cc1[N+](=O)[O-],inactive: 15%,–
COc1ccc(/C=N/NC(=O)Cc2csc(Nc3cccc(C(F)(F)F)c3)n2)cc1C,–,"inconclusive [cytotoxic, single point]"
COc1ccc(C2SCC(C(=O)O)N2C(C)=O)cc1OC (stereo not given),inactive: 0.863%,–
Cc1cc(OCCOCCNC(C)C)cc(C)c1Cl,–,"inconclusive [cytotoxic, single point]"
CN(C)S(=O)(=O)Oc1cccc(C(=O)Nc2ccc(Cl)c(Cl)c2)c1,–,"inconclusive [cytotoxic, single point]"
Cc1ccc(CNC(=O)CCc2c(C)nc3c(c(C)nn3-c3ccc(C)cc3)c2C)cc1,inactive: 2.78%,–
O=C(c1cnn2c1NC(c1ccco1)CC2C(F)(F)F)N1CCN(c2cccc(Cl)c2)CC1 (stereo not given),–,active: 14.6 µM
COc1ccc([C@H]2C[C@@H](O)[C@H](n3cc(C4CC4)nn3)CN2C(=O)c2cccs2)cc1,inactive: 9.34%,–
CC(=O)Nc1cccc(-c2ccnc3c2CC(C)(C(=O)Nc2cccc(OC(F)(F)F)c2)O3)c1 (stereo not given),–,active: 9.2 µM
COc1cccc2c1C(=O)c1c(O)c3c(c(O)c1C2=O)C[C@@](O)(C(=O)CO)C[C@@H]3O[C@H]1C[C@H](N)[C@H](O)[C@H](C)O1,–,active: 9.2 µM
C=C1c2nc3ccccc3n2C=C(c2ccc(C)cc2)N1c1ccccc1,–,active: 20.6 µM
COc1ccc(OC)c(/C=C/C(=O)N2C(=O)c3cccc(N)c3C2=O)c1,–,"inconclusive [cytotoxic, single point]"
CN(C)c1ccc(NC(=O)Nc2cccc(Cl)c2)cc1,–,"inconclusive [cytotoxic, single point]"
CCN1CCN(CCC(=O)Nc2cc(C)ccc2C)CC1,–,"inconclusive [rising, single point]"
Cc1cc(C)c(O)c(-c2cc(C(=O)NCc3ccccc3)[nH]n2)c1,–,"inconclusive [cytotoxic, single point]"
CCOc1ccc(N(CC(=O)Nc2ccc3c(c2)OCCO3)S(=O)(=O)c2c(C)noc2C)cc1,inactive: -14.6%,–
CCOC(=O)c1cccc(NC(=O)CN2C(=O)C3C4C=CC(C4)C3C2=O)c1 (stereo not given),inactive: 8.27%,–
CCOC(=O)N/N=C\c1ccccc1OC/C=C/c1ccccc1,–,"inconclusive [cytotoxic, single point]"
COC(=O)c1ccc(COc2ccccc2/C=C(\C#N)C(=O)Nc2c(C)cccc2C)cc1,–,active: 18.4 µM
Cc1c(CCOC(=O)CC23CC4CC(CC(C4)C2)C3)sc[n+]1CC(=O)c1ccc(Br)cc1,–,"inconclusive [cytotoxic, single point]"
CC1CCc2c(C(=O)Nc3ccc(N4CCOCC4)cc3)csc2C1 (stereo not given),–,"inconclusive [cytotoxic, partial curve]"
COc1ccc(S(=O)(=O)N(C)[C@H]2C[C@H]3c4cc(Oc5ccccc5C)ccc4CCN3C(=O)[C@H]2[C@H](C)O)cc1,inactive: -22.4%,–
CC1Cc2ccccc2N1C(=O)C1CCCN1S(=O)(=O)c1ccc(Cl)cc1 (stereo not given),inactive: -10.4%,–
COc1ccc(C=CC(=O)c2cc(O)ccc2O)cc1,–,active: 16.4 µM

SMILES,"activity, negative = less viability",Potency
CCCCCCNC(=O)O[C@H]1Cn2c(=O)ccc(=O)n2[C@@H]2CN(S(=O)(=O)c3ccc(C)cc3)C[C@]12O,–,active: 16.4 µM
CCCC(=O)Nc1ccc(NC(=O)c2cc3ccccc3o2)c(OC)c1,–,"inconclusive [cytotoxic, single point]"
Cc1cc(C)c(S(=O)(=O)NCc2ccccn2)c(C)c1,inactive: -0.955%,–
CC(C)NC(=O)N1Cc2cc(C(=O)NCC(F)(F)F)nc(-c3cccc(-c4cc5ccccc5o4)c3)c2[C@@H]1CCO,–,"inconclusive [cytotoxic, partial curve]"
NC(=O)CCS(=O)(=O)CCN1CCN(S(=O)(=O)c2ccc3c(c2)CCC3)CC1,inactive: -0.675%,–
CCc1nnc(NC(=O)c2ccc(S(=O)(=O)N3CCCc4ccccc43)cc2)o1,–,"inconclusive [cytotoxic, full curve]"
N#CSCC(=O)c1cccc2ccccc12,–,"inconclusive [cytotoxic, single point]"
NC(N)=NC(N)=Nc1ccc(SC(F)(F)F)cc1,inactive: -14.7%,–
COc1ccc(/C=C2\COc3ccccc3C2=O)cc1OC,–,active: 11.6 µM
Cc1c(CCOC(=O)c2ccc(N3CCOCC3)c([N+](=O)[O-])c2)sc[n+]1CC#N,–,active: 23.1 µM
COc1cc(OC)cc(C(=O)NCC(=O)N2CC=C(c3ccccc3)CC2)c1,–,active: 16.4 µM
COC(=O)c1c[nH]n2c(=O)c(Cc3ccc(F)cc3Cl)c(C)nc12,–,"inconclusive [cytotoxic, single point]"
C/C(=N/NC(=O)CN1CCN(S(=O)(=O)c2ccc(C)cc2)CC1)c1ccco1,inconclusive: 31.8%,–
CN1CCC2(CC1)N=C(c1ccc(F)cc1)C(=S)N2C(=O)c1ccc(C(C)(C)C)cc1,–,"inconclusive [cytotoxic, single point]"
O=C(O)CCCn1cc(NC(=O)c2ccco2)cn1,–,"inconclusive [rising, single point]"
O=C(NCCC(=O)N1CCN(S(=O)(=O)c2ccccc2)CC1)c1ccc(Br)cc1,inactive: -3.32%,–
N#Cc1ccc(OCC(=O)Nc2nc(-c3ccccn3)cs2)cc1,–,"inconclusive [cytotoxic, partial curve]"
O=C(CSc1nnc(-c2ccccc2)o1)NC1CCCCC1,–,"inconclusive [rising, full curve]"
NS(=O)(=O)c1ccc(N2N=C(c3ccccc3)CC2c2ccccc2)cc1 (stereo not given),–,"inconclusive [cytotoxic, single point]"
CCOC(=O)COc1ccc(/C=C/[N+](=O)[O-])c(OCC(=O)OCC)c1,–,active: 7.94 µM
C/C(=N\NC(=O)c1ccccc1Cl)c1ccccn1,–,"inconclusive [cytotoxic, full curve]"
Cc1ccc(-c2csc3nnc(SCC(=O)Nc4nsc(-c5ccccc5)n4)n23)cc1,–,"inconclusive [cytotoxic, single point]"
CC1=NNC(=O)C1CC(=O)N/N=C/c1ccncc1 (stereo not given),inconclusive: -2.79% [cytotoxic],–
Cc1cccc(/C=C/c2nc3ccccc3c(=O)n2Cc2ccccc2)c1,–,"inconclusive [cytotoxic, single point]"
CCOC(=O)c1cc(Cl)c2c(ccc3ccccc32)n1,inactive: 8.24%,–

SMILES,"activity, negative = less viability",Potency
CCOC(=O)N1CCN(c2ccc(Cl)cc2)CC1,inactive: 8.1%,–
Cn1c(=O)[nH]c(=O)c2c1nc(Sc1nc3ccccc3s1)n2Cc1ccccc1,–,"inconclusive [cytotoxic, partial curve]"
CCCc1sc(N/N=C/c2ccccn2)nc1-c1ccc(F)cc1,–,active: 2.82 µM
CCOC(=O)c1[nH]nc(-c2cc(CC)c(O)cc2O)c1-c1cscn1,–,"inconclusive [cytotoxic, single point]"
CCCN1CCN(CCCNC(=O)c2cc3c(=O)[nH]c4ccc(C)cc4c3s2)CC1,–,active: 20.6 µM
COc1nc(Nc2nc3ccccc3c(=O)[nH]2)nc2ccc(C)cc12,–,active: 1.3 µM
Cc1ccc(C(=O)Nc2ccc3ncccc3c2)cc1,inactive: -1.76%,–
O=C(NCCN1CCN(c2ccccc2)CC1)Nc1ccc(Cl)cc1,–,"inconclusive [cytotoxic, partial curve]"
CCOc1ccc(Nc2cc(C)nc3c(C)cccc23)cc1,–,"inconclusive [cytotoxic, partial curve]"
COc1ccc(CCNC(=O)CN(C2CCCCC2)S(C)(=O)=O)cc1OC,inactive: -4.63%,–
C=CCc1c(C)nc(-c2ccccc2)nc1Nc1ccccc1O,–,"inconclusive [cytotoxic, single point]"
Cc1cc(N)n2ncc(-c3ccc(Cl)cc3)c2n1,–,"inconclusive [cytotoxic, single point]"
O=C(/C=C/c1ccc2c(c1)OCO2)NC1CCCC1,inactive: 4.73%,–
CCCc1nc2c3ccccc3ccn2c1Cc1cccc(F)c1,–,"inconclusive [cytotoxic, single point]"
COc1ccc(-c2nnc(-c3ccc(C)cc3)o2)cc1,–,"inconclusive [rising, partial curve]"
Cc1ccc(N2CC(C(=O)N3CCOCC3)CC2=O)cc1Cl (stereo not given),inactive: -1.98%,–
CN(Cc1ccccc1)C(=O)c1cccc(NC(=O)Cc2ccc(NC(=O)C3CCCN(C(=O)C4CC4)C3)cc2)c1 (stereo not given),inactive: -2.4%,–
CCN(CC(=O)Nc1ccc(OC)c(OC)c1)S(=O)(=O)c1ccc(C)cc1,inactive: -2.6%,–
CCCCC(=O)O[C@H]1CC[C@H]2[C@@H]3CCc4cc(O)ccc4[C@H]3CC[C@]12C,–,active: 20.6 µM
COc1ccc(-n2cc(CNC3CCOCC3)c(-c3cccc(F)c3)n2)cc1,–,"inconclusive [cytotoxic, partial curve]"
CCOC(=O)Cn1c(C)[n+](CC(=O)c2ccccc2)c2ccccc21,–,"inconclusive [rising, single point]"
COC(=O)c1sc(N/N=C/c2ccc(C(C)C)cc2)nc1C,inactive: -6.99%,–
O=C1NN(c2ccccc2)C(=O)C1=Cc1ccccc1O,–,"inconclusive [cytotoxic, partial curve]"
Cc1cccc(Nc2nc(-c3sc(C)nc3C)cs2)c1,–,active: 25.9 µM
CC(C)NC(=O)N(C)C[C@@H]1Oc2ccc(NC(=O)Nc3ccc(C(F)(F)F)cc3)cc2CC(=O)N([C@H](C)CO)C[C@@H]1C,–,"inconclusive [cytotoxic, single point]"
